Paper PMC4336329 (PLoS ONE, 2015)
Screen size: about 310,000 compounds; about 2,200 (0.71%) showed an effect of 50% or more. Effects have a minus sign here. The list shows a part of the results.

biological target: human ether-à-go-go-related gene (hERG) potassium channel (human, UniProt Q12809); experiment: primary screen, population patch clamp on CHO cells stably expressing hERG
Sequence (Q12809 whole entry, looked up): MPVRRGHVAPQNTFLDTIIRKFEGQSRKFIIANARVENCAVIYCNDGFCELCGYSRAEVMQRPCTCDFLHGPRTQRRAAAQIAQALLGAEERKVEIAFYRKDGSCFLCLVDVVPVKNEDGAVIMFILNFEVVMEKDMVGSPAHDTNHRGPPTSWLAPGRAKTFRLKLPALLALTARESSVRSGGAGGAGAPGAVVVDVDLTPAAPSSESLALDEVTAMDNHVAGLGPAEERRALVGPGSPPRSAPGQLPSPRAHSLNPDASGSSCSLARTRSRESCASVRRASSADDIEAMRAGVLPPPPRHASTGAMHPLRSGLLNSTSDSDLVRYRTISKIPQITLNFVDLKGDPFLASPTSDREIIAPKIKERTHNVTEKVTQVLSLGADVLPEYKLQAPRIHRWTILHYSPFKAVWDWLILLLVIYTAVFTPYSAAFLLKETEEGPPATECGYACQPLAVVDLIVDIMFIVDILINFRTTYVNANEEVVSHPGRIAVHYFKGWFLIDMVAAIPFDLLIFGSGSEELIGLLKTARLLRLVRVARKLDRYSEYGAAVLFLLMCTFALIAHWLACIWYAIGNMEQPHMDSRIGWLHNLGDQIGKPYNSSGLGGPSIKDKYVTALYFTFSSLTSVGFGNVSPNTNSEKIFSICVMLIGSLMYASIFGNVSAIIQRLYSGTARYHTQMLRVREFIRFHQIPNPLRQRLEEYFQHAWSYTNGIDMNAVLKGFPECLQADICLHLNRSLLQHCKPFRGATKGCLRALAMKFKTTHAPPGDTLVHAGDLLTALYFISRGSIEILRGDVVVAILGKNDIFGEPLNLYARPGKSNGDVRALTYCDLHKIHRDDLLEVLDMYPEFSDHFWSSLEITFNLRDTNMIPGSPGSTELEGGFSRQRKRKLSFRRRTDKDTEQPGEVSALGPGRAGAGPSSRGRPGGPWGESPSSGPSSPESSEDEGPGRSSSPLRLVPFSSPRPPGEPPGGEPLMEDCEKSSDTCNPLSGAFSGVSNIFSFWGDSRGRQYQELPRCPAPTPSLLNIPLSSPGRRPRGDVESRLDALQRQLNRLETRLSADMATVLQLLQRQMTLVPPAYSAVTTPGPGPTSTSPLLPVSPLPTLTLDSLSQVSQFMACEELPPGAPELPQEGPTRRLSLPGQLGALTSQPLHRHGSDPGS

SMILES | hERG current change (%, negative = inhibition) at 1uM [%]
O=C(c1ccco1)N1CCN(C(=O)c2ccccc2Oc2ccccc2)CC1 | -0.621
COc1cc(C(=O)NC(=S)Nc2nc(-c3ccc(F)cc3)cs2)cc(OC)c1OC | 8.92
Cc1cc2ncc(-c3ncc(C(F)(F)F)cc3Cl)cn2n1 | 3.74
COc1ccc(NC(=O)N[C@@H](Cc2ccccc2)C(=O)NN)cc1 | 5.67
N#CCCSc1ncnc2c1oc1ccccc12 | 4.55
C=CCNC(=O)NC(=O)COC(=O)[C@H](C)NS(=O)(=O)c1c(C)c(C)cc(C)c1C | 6.58
COC(=O)c1ccc(NC(=O)c2ccccc2)o1 | 16.7
CCN(CC(=O)Nc1ccccc1OC)C(=O)CC1CC2CCC1C2 (stereo not drawn) | 7.01
Cc1ccc(C(=O)NC(=S)Nc2cc(-c3nc4ccccc4s3)ccc2C)cc1 | 15
Cc1cccc(NC(=O)c2nc[nH]c2C(=O)N2CCN(C(=O)OC(C)(C)C)CC2)c1 | 9.03
O=C(O)C(Cc1c[nH]c2ccccc12)NS(=O)(=O)c1ccc(Cl)c(C(F)(F)F)c1 (stereo not drawn) | 7.86
Cc1ccc(S(=O)(=O)N2CCCC(CCC(=O)NCc3ccccc3F)C2)s1 (stereo not drawn) | 2.25
COc1ccccc1NC(=O)c1nn(-c2ccc(OC(F)(F)F)cc2)ccc1=O | 13.4
COc1cccc(NC(=O)N[C@@H](Cc2ccccc2)C(=O)O)c1 | 12.4
CCOc1ccc(Br)cc1S(=O)(=O)Nc1ncn[nH]1 | 22.8
CCOC(=O)N1CCN(C(=O)Cc2ccc(-n3c(=O)[nH]c4ccccc4c3=O)cc2)CC1 | 4.27
O=C(c1cc(Br)ccc1O)N1CCN(S(=O)(=O)Cc2ccccc2)CC1 | 4.88
CN(C)S(=O)(=O)c1ccc(C(=O)NCc2ccccn2)cc1 | 14.5
COc1ccc(S(=O)(=O)N2CCOCC2)cc1NC(=O)CN1CCC(Cc2ccccc2)CC1 | 12.1
Cc1csc(Cn2c(CN(C)C)nc3ccccc3c2=O)n1 | 8.72
Cc1ccc(-n2c(C)csc2=N)cc1 | 17.7
Cc1cc(C(=O)N2CCC(C(=O)O)CC2)c(C)o1 | 3.26

SMILES | hERG current change (%, negative = inhibition) at 1uM [%]
O=C1c2ccccc2C(=O)N1CCc1csc(NNc2nc(CCN3C(=O)c4ccccc4C3=O)cs2)n1 | 0.532
Cc1cccc(CC(C)NC(=O)c2oc3c(F)cccc3c2C)n1 (stereo not drawn) | 13.5
COc1ccc(NC(=O)C(C)Sc2ccccc2)cc1 (stereo not drawn) | 4.73
COc1ccc(C(C(=O)NC(C)C)N(C(=O)CCC(=O)Nc2nccs2)c2ccccc2F)cc1 (stereo not drawn) | 11.3
COc1ccc(O)c(C(=O)c2cnc3nc4ccccc4n3c2)c1 | 1.95
O=[N+]([O-])c1ccc(NC(=S)N2CCN(c3ccc(F)cc3)CC2)cc1 | 13
Cc1oc(C(=O)O)cc1CSCc1ccoc1C(=O)O | 10.4
O=C(O)C(Cc1ccccc1)NC(=O)C(c1ccccc1)c1ccccc1 (stereo not drawn) | 12.4
O=C(Nc1ccc(S(=O)(=O)Nc2ncccn2)cc1)c1ccc2ncsc2c1 | 9.19
Cc1cccc(C)c1OCCNC(=O)CCC(=O)c1ccccc1 | 8.59
O=C(CCCc1ccccc1)N=C1SC2CS(=O)(=O)CC2N1c1ccccc1F (stereo not drawn) | 4.65
COc1ccc(-c2nnn(CC(=O)N(CC(=O)NCCC(C)C)c3ccccc3)n2)cc1OC | 9.66
COc1c(Cl)ccc(Cl)c1C(=O)NC(=S)N1CCOCC1 | 0.869
CCNC(=O)CC1C(=O)N(c2ccc(F)cc2)C(=O)N1Cc1ccccn1 (stereo not drawn) | -5.1
O=c1[nH]c(C2CCCN(S(=O)(=O)c3ccccc3)C2)nc2c1nnn2Cc1ccc2c(c1)OCCO2 (stereo not drawn) | 13.7
COc1ccc2nc(N/C(N)=N/C(=S)Nc3ccc(C)c(C)c3)nc(C)c2c1 | 10.5
COc1cccc(-c2cc(C(F)(F)F)nc(N3CCOCC3)n2)c1 | 12.7
Cc1cccc(NC(=O)CSCC(=O)NNC(=O)c2ccoc2C)c1 | 4.82
FC(F)(F)c1nnc2sc(-c3ccccn3)nn12 | 7.91
COc1cnc(-c2ccccc2)nc1Oc1ccc(Cl)cc1C | 7.62
CCC(=O)Nc1ccc2c(c1)ncn2-c1ccccc1OC | -3.76
COc1cc(OC)cc(-c2cc3ccc(OC)cc3cn2)c1 | 16.3

SMILES | hERG current change (%, negative = inhibition) at 1uM [%]
COc1ccc2c(c1OC)C(=O)N1c3ccccc3C(=O)N(c3ccccc3F)C21 (stereo not drawn) | 5.43
CCN(C(=O)Cn1c(=O)oc2ccccc21)c1cccc(C(F)(F)F)c1 | 12.3
Cc1nc(N)nc(N)c1CCCc1ccc(Cl)c(Cl)c1 | 8.81
COc1ccc(CNC(=O)CSc2n[nH]c(N)n2)cc1OC | -73.4
Cc1ccc(O)c(CNc2nc3ccccc3n2C(C)C)c1 | 17.8
CC(C)N1CCc2c(sc(NC(=O)Cc3ccccc3)c2C#N)C1.Cl | 3.03
S=C(NCCCn1ccnc1)Nc1cccc(Cl)c1 | 0.748
O=C(NCc1ccccn1)C1C2C=CC(C2)C1C(=O)Nc1ccc(F)cc1 (stereo not drawn) | 0.921
O=C(CCC1CCCC1)N1CCC(N2CCN(c3ccccc3)CC2)CC1 | -41.6
COc1cccc(-n2c(C)nc3c(cnn3-c3ccc(Cl)cc3)c2=O)c1 | 3.32
Cc1sc2ncn(CC(=O)N3CCCCC3)c(=O)c2c1C | 8.93
CN(C)/N=C/C=C1\CCC/C(=C\c2ccc(F)c(F)c2)C1=O | 12.6
CCN(CC)C1CCN(C(=O)c2cc(COc3ccccc3SC)on2)C1 (stereo not drawn) | -45.2
COc1cc(Cl)c(C)cc1NC(=O)COC(=O)c1ccc(CN2CCCC2=O)cc1 | -0.226
O=C1CCC/C(=N\NC(=O)c2ccc(COc3ccccc3-c3ccccc3)cc2)C1 | 9.63
O=C1C=CCCC1 | 16.3
COc1cc(NC(=O)C2CC(=O)NC3=C2C(=O)CCC3)c(OC)cc1Cl (stereo not drawn) | -7.92
COc1ccccc1NC(=O)c1ccc(SCC(=O)NCc2ccccc2Cl)c([N+](=O)[O-])c1 | 8.8
[2H]c1c([2H])c([2H])c(C(=O)c2sc(N3CCCCCC3)nc2-c2ccccc2)c([2H])c1[2H] | 12.5
Cc1cc(=O)[nH]c(-n2nc(C)cc2C)n1 | 5.9
CN(CC(=O)Nc1ccccc1C(F)(F)F)C(=O)Cc1ccc(S(=O)(=O)N2CCOCC2)s1 | 2.7
CC(C)OC(=O)CSc1nc(N)c(C#N)c(-c2ccco2)c1C#N | 8.37

SMILES | hERG current change (%, negative = inhibition) at 1uM [%]
CCOC(=O)C1CCCN(S(=O)(=O)c2ccc(NC(C)=O)cc2)C1 (stereo not drawn) | 17.9
COC(=O)CNC(=O)Cc1c(C)n(C(=O)c2ccc(Cl)cc2)c2ccc(OC)cc12 | 7.67
CC(=O)/C=C1/C(=O)Nc2ccccc21 | -6.33
Cc1c(NC(=O)C(=O)/C=C(/O)c2ccccc2)c(=O)n(-c2ccccc2)n1C | 5.16
O=C(/C=C/c1ccccc1)NC1CCCc2ccccc21 (stereo not drawn) | 28.4
O=C(COc1cccc2c1CCN(Cc1ccccc1)C2=O)NCc1ccco1 | -30.1
COc1ccc(-c2csc(NC(=O)c3ccc(N4C(=O)CCC4=O)cc3)n2)cc1OC | 6.6
O=C(Nc1cccnc1Cl)c1cc2ccccc2o1 | 15.3
COC(=O)C1=C(c2cccc(OCc3ccccc3)c2)C[C@@H]2CC[C@H]1N2C(=O)NCc1ccc(OC)c(OC)c1 | 15.3
O=C(CCCN1C(=O)c2ccccc2C1=O)NCCN1C(=O)S/C(=C\c2cccs2)C1=O | 3.64
Cc1cccc(-c2nnc(N)s2)c1 | 10.9
COc1ccc(C(=O)OC(COc2ccccc2)Cn2ccnc2)cc1 (stereo not drawn) | 0.723
CC(C)c1ccc(S(=O)(=O)N2CCN(CC(=O)c3ccc(O)c(O)c3)CC2)cc1 | 5.18
COc1cc(C2c3c(n[nH]c3C)C(=O)N2c2ccc(C)cc2)ccc1O (stereo not drawn) | 6.53
Cc1ccc(NC2CCCN(C(=O)CCc3scnc3C)C2)cc1C (stereo not drawn) | 6.92
CCNC(=S)NNC(=O)c1ccc(OC)cc1 | 10.2
CCCN(C(=O)C(C)Oc1cccc(Cl)c1)c1c(N)n(Cc2ccccc2)c(=O)[nH]c1=O (stereo not drawn) | 8.88
COc1cccc(CN2CC(C(=O)NCCc3ccccc3C(F)(F)F)CCC2=O)c1 (stereo not drawn) | 17.3
Cc1ccc(Nc2c([N+](=O)[O-])c(=O)oc3ccccc23)cc1C | 9.91
Cc1ccccc1C(=O)NC1CCN(CC(=O)Nc2ccc(N(C)C)cc2)CC1 | 21.8
Cc1ccc(Nc2nc(CSc3nnnn3-c3ccccc3)cc(=O)[nH]2)cc1 | 5.08
